Experimental data as given in the supplement of paper PMC10338343.
± gives the standard deviation. Only a part is listed here, and it is no random draw.

Test system: MIWI (PIWIL1) piRISC loaded with L1MC piRNA (30 nt)
Assay: pre-steady-state target cleavage rate (min^-1); MIWI and MILI are mouse PIWI proteins and EfPiwi is from a freshwater sponge; tags in brackets are library labels; higher = faster piRNA-guided slicing of the target
Details: guide: L1MC piRNA 5'p-UAACUAAAUACUAUGCAAGCUGUAGGUCCU
Outline: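 For Cleave-'n-Seq, a transcribed, DNA-blocked target RNA library […] met 1 nM active affinity-purified piRISC with one synthetic guide at 33 °C for 0–8 or 0–960 min in HEPES–potassium acetate buffer, with or without 500 nM GTSF1 partner protein. Uncleaved targets were sequenced and normalised to depth and weakly complementary targets, with three trials pooled and k3 capped at 0.0001 min^-1. A burst-and-steady-state fit supplied the pre-steady-state cleavage rate.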

[1] = auxiliary factor: 500 nM mouse GTSF1
[2] = auxiliary factor: none (no GTSF1)
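Note: 1 nM active piRISC with 0.1 nM target library at 33 °C single turnover.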

Sequence	pre-steady-state target cleavage rate [1]	pre-steady-state target cleavage rate [2]
AGGACCUACAGCUUGCAUAGUAAUUACAAA	0.378 ± 0.07	–
UCCUGCUACACGUUGCAUAGUAUUUUCAAA	0.0964 ± 0.031	–
UCCUGCUACAGCUUGCAUAGUAUUAUGUAA	0.153 ± 0.042	–
UCCUCCUACAGCUUCGAUAGUAUUUAGAAA	0.0755 ± 0.019	–
UCCUGGAACAGCUUGCAUCAGUAUUUAGUUA	0.00906 ± 0.005	–
UCCACCUACAGCAAGCAUAGUAUUUUCAAA	0.196 ± 0.038	–
UCCUGGAUGUCGAACCAUAGUUAAUAGUUA	< 0.0001	–
UCCUGGUACAGCUUGCAUAGUAUUAUCAAA [g7:g24:cont:t1A]	0.124 ± 0.024	–
UCCUGGAUCACGAUGCAUAGUAUUUAGUAA	0.00608 ± 0.0037	–
UCCUGCUACACGUUGCAUAGUAUUUAGAAA	0.109 ± 0.022	–
UCCUGCUACAGCUUCCAUAGUAUUUAGAAA	0.0178 ± 0.0084	–
UCCUGGAUGUCGUAGCAUAGUAUUUACUUA	0.0046 ± 0.0037	–
UCCACCUACAGCUUGCAUAGAUAUUUAGUUA	0.0183 ± 0.0085	–
UCCUCCUACAGCAAGCAUAGUAUUUACAAA	0.335 ± 0.059	–
UCCACCUACAGCAACCAUAGUAUUUAGUAA	0.074 ± 0.015	–
UCCUGCUACAGCUUGCAGUAGUAUUUAGUUA	0.00673 ± 0.0053	–
UCGACCUACAGCUUGCAUAGAAUUUACAAA	0.392 ± 0.057	–
UGUGACCUACAGCUUGCAUAGUAUUUAGUUA	–	0.0959 ± 0.018
UCCUGGUACAGCUACGAUAGUAUUUAGUUA	0.0384 ± 0.0077	–
AGGACCUACAGCUUGCAUAGAUAUUAGAAA	0.158 ± 0.057	–

Sequence	pre-steady-state target cleavage rate [1]	pre-steady-state target cleavage rate [2]
UCCUGGAUGUCGUUGCAUUGUAUUUAGAUA	–	< 0.0001
UCCUGGAUGUCGAACGUUAGUAUUUGUUA	–	< 0.0001
UCCUGGAUGUCGUUGGAAAGUAUUUAGUUA	–	< 0.0001
UGGACCUACAGCUUGCAUAGUAUUUUGUAA	0.272 ± 0.034	0.0253 ± 0.0056
UCCUGGAUGUACUUGCAUAGUAUUUAGUUA	0.187 ± 0.015	0.026 ± 0.0066
UCCACCUACAGCUUGCAUAGUUAUUAGUUA	0.157 ± 0.021	0.0113 ± 0.0028
UCCACCUACAGCGUUGCAUAGUAUUUAGUUA	1.03 ± 0.13	0.0279 ± 0.005
UCCUCCUACAGGUAGCAUAGUAUUUAGUUA	1.13 ± 0.066	0.00438 ± 0.0018
UGCACCUACACCUUGCAUAGUAUUUAGUUA	0.967 ± 0.059	0.0415 ± 0.0067
UGGACCAACAGCUUGCAUAGUAUUUAGAUA	0.428 ± 0.022	0.0582 ± 0.014
UGGACCUACAGCUUGCAUAGUAUUUUCAAA [g6:g29:cont:t1A]	0.231 ± 0.035	0.00394 ± 0.0029
AGGACCUACAGCUUGCAUAGUAUUUCAGUUA	0.735 ± 0.08	0.129 ± 0.034
UGGACCUACUGCUUGCAUAGUAUUUAGAUA	0.256 ± 0.021	0.018 ± 0.0023
UCCUGCUACAGCUUGCAUGUAUUUAGUUA	0.413 ± 0.054	0.00516 ± 0.0026
UCCUGCUACAGCUUGCAUUGUUUUUAGUUA	0.0845 ± 0.0095	0.00988 ± 0.0021
UCCUGGUACACCUUGCAUAGUAUUUACUUA	0.195 ± 0.063	0.00921 ± 0.0038
UCCUGGAACAGCUUGCAUAGUAUUUAAGUUA	0.549 ± 0.034	0.0597 ± 0.014
UGGACCUACAGCUUGCAUAGAAUUUAGUAA	0.356 ± 0.048	0.0167 ± 0.0059
UCCUGCUACAGCUUGCAUAGUAUUUACUUA	0.355 ± 0.037	0.0207 ± 0.0039
UCCACCUACAGCUUGCAUUGUUUUUAGUUA	0.0873 ± 0.011	0.00736 ± 0.0018

Sequence	pre-steady-state target cleavage rate [1]	pre-steady-state target cleavage rate [2]
UCCUGCUACACCUUGCUUAGUAUUUAGUUA	0.627 ± 0.047	0.0251 ± 0.005
AGGACCUACAGCUUGCAUAGUAUUAUCUUA	0.335 ± 0.051	0.00684 ± 0.0037
UCCUGGAACAGCUUGCGUAGUAUUUAGUUA	1.43 ± 0.087	0.0397 ± 0.0099
UCGACCUACAGCUUGCAUAGUAAUUUAGUUA	0.179 ± 0.019	0.0146 ± 0.0048
UCCUGGAUCAGCUUGCAUAAUAUUUAGUUA	0.472 ± 0.035	0.0283 ± 0.0062
UCCUGGAACAGAUUGCAUAGUAUUUAGUUA	0.957 ± 0.051	0.0213 ± 0.0047
UGGACGUACAGCUUGCAUUGUAUUUAGUUA	0.79 ± 0.05	0.0432 ± 0.01
UCCACCUACAGCUUGCAUACUAUUUAGAUA	0.101 ± 0.023	0.00785 ± 0.0021
UCCUGGUACACCUUGCAUAGUUUUUAGUUA	0.0764 ± 0.027	0.0132 ± 0.0038
UGGACCUACAGCUUGCUAUGUAUUUAGUAA	0.0304 ± 0.0054	0.00289 ± 0.0013
UCGACCUACAGCUUGGAUAGUAUUAAGUUA	0.589 ± 0.047	0.0157 ± 0.003
UCCUGGAACAGCUUGCAUAGUAUUUAGUUUA	0.927 ± 0.049	0.0571 ± 0.012
UCCUGGAUCAGCUUGCUUUGUAUUUAGUUA	0.0164 ± 0.004	0.00354 ± 0.0015
UCCUGGUACUGCUUGGAUAGUAUUUAGUUA	0.391 ± 0.078	0.0193 ± 0.0036
UCCUGGAUGAGCUAGCUUAGUAUUUAGUUA	0.125 ± 0.0099	0.00494 ± 0.0023
UGGACCUACAGCUUGCAUAGUAUUUAGUAA	1.11 ± 0.064	0.0627 ± 0.014
UCCUGGAUGUGCUUGCAUAGUAAUUUAGUUA	0.00787 ± 0.004	0.00505 ± 0.0037
UCCUGGAUCAGCUUGCAUAGUAUUUUAGUUA	0.979 ± 0.05	0.0222 ± 0.0046
